No constants are given. Whether binding was seen depends on the method and setting. Binding seen in cells or lysates may run through a third protein. Some results given as binding are weak or reduced against the parent protein; the word gives no strength. For some assays here: Where a sequence is shown, tags or fusion partners need not be part of it.

By UniProt entry, the sequences of proteins in these tests, tags left out.
UniProt P22358: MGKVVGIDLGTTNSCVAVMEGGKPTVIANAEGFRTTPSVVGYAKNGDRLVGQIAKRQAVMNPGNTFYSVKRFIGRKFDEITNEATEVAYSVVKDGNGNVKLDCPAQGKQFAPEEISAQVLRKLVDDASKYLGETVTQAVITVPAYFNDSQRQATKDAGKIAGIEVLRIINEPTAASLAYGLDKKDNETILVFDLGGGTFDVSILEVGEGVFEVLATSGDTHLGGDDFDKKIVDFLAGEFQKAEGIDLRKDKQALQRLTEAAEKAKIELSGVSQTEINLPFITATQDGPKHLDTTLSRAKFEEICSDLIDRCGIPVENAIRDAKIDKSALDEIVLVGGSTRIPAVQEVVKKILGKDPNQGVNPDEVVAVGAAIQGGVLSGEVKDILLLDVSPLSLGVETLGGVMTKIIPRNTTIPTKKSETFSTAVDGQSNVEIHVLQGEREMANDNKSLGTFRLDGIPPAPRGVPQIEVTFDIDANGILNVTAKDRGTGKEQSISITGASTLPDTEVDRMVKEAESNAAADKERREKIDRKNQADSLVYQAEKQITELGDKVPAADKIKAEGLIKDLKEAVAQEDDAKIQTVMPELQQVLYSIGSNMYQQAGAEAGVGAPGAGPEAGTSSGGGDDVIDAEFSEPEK

Assay [1] deals with T1, Vipp1 with an N-terminal His-tag (Synechocystis sp. PCC6803) (UniProt Q55707).
T1 sequence: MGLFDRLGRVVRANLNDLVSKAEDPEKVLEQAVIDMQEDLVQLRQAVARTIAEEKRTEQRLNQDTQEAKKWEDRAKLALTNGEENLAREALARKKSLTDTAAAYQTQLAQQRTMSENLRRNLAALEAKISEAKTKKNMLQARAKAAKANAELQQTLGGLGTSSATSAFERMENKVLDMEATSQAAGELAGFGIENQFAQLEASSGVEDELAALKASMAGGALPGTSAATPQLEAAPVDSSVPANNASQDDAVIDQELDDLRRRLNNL
As to the kind of experiment: pull-down; His-tagged Vipp1 left on the Ni-NTA matrix, incubated with Synechocystis cellular extract (cells not exposed to HL) with 5 mM ATP or 10 U apyrase; Western blot with anti-DnaK2; only the target purified.

Assay [2] addresses T2, Vipp1 (Synechocystis sp. PCC6803 (endogenous in Synechocystis)) (UniProt Q55707).
T2 sequence: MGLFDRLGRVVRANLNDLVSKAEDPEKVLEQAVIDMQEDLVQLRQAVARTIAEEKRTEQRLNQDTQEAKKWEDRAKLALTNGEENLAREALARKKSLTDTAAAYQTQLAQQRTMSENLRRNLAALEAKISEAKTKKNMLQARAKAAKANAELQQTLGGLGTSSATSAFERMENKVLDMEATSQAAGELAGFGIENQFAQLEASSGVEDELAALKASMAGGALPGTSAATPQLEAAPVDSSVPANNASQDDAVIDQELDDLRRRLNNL
As to the kind of experiment: co-IP; antiserum (anti-DnaK2; also Vipp1 antibodies) coupled to protein A sepharose, incubated with Synechocystis cellular extracts (cells not exposed to HL); Western blot with antibodies against DnaK2 and Vipp1; pre-immune serum as control.

Assay [3] deals with T3, Vipp1–GFP (Synechocystis Vipp1 tagged with green fluorescent protein at the C-terminus) (Synechocystis sp. PCC6803) (UniProt Q55707).
T3 sequence: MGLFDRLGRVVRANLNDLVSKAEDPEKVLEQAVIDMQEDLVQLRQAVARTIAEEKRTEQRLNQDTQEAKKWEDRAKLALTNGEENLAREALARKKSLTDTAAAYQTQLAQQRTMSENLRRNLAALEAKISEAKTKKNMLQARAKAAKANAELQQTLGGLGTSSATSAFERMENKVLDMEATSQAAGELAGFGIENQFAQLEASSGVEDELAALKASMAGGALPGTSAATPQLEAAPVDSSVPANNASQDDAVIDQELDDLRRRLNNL
As to the kind of experiment: condition: only cells grown in low light (LL), not exposed to HL; co-IP; anti-GFP microbeads (μMACS column) on lysate of LL-grown (8 μE m^−2 s^−1) Synechocystis vipp1–gfp cells; GFP affinity-bound fraction immunoblotted.

Assay [4] addresses T3, Vipp1–GFP (Synechocystis Vipp1 tagged with green fluorescent protein at the C-terminus) (Synechocystis sp. PCC6803). In words: co-IP; anti-GFP microbeads (μMACS column) on lysates of HL-treated Synechocystis vipp1–gfp, futA1–gfp and wild-type cells; GFP affinity-bound fraction immunoblotted. For orientation: In western blotting, separated proteins are transferred to a membrane and probed.

In assay [5] the target is T4, FutA1–GFP (GFP-tagged FutA1) (Synechocystis sp. PCC6803) (UniProt P72827).
T4 sequence: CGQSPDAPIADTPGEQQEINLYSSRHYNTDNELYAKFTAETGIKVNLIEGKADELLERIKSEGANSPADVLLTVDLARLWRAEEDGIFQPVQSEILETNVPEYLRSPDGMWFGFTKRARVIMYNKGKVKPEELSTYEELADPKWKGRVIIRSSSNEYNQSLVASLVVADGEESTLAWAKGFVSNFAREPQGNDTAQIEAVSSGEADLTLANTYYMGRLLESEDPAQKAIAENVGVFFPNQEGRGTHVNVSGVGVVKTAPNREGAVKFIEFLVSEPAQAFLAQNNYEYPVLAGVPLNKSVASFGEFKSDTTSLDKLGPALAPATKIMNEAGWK
The assay is described as above.

Assay [6] addresses Chaperone protein DnaK2 (Synechocystis sp. PCC6803 (endogenous in Synechocystis)) (UniProt P22358). As to the kind of experiment: co-IP; antiserum (anti-DnaK2; also Vipp1 antibodies) coupled to protein A sepharose, incubated with Synechocystis cellular extracts (cells not exposed to HL); Western blot with antibodies against DnaK2 and Vipp1; pre-immune serum as control.

As to “Chaperone protein DnaK2 (from UniProt P22358 1-636)”, the binding entry in assay [1] is given as “binds”; in assay [2] it was “binds”; in assay [3], “no binding”; in assay [4] it was “binds”; in assay [5] it was “no binding”.

B1: Elongation factor G1 (protein, UniProt P28371 1-695)
chain: MEKDLTRYRNIGIFAHVDAGKTTTTERILKLTGRIHKLGEVHEGESTMDFMEQEAERGITIQSAATSCFWKDHQLNVIDTPGHVDFTIEVYRSLKVLDGGIGVFCGSGGVEPQSETNWRYANDSKVARLIYINKLDRTGADFYRVVKQVETVLGAKPLVMTLPIGTENDFVGVVDILTEKAYIWDDSGDPEKYEITDIPADMVDDVATYREMLIETAVEQDDDLMEKYLEGEEISIDDIKRCIRTGTRKLDFFPTYGGSSFKNKGVQLVLDAVVDYLPNPKEVPPQPEVDLEGEETGNYAIVDPEAPLRALAFKIMDDRFGALTFTRIYSGTLSKGDTILNTATGKTERIGRLVEMHADSREEIESAQAGDIVAIVGMKNVQTGHTLCDPKNPATLEPMVFPDPVISIAIKPKKKGMDEKLGMALSKMVQEDPSFQVETDEESGETIIKGMGELHLDIKMDILKRTHGVEVEMGKPQVAYRESITQQVSDTYVHKKQSGGSGQYAKIDYIVEPGEPGSGFQFESKVTGGNVPREYWPAVQKGFDQSVVKGVLAGYPVVDLKVTLTDGGFHPVDSSAIAFEIAAKAGYRQSLPKAKPQILEPIMAVDVFTPEDHMGDVIGDLNRRRGMIKSQETGPMGVRVKADVPLSEMFGYIGDLRTMTSGRGQFSMVFDHYAPCPTNVAEEVIKEAKERQAAA
Consider B1, for which the binding entry in assay [4] was “binds”; in assay [5], “no binding”.

B2: PSII assembly/repair factor Ycf48 (protein, UniProt P73069 29-342)
chain: CSHVPDLAFNPWQEIALETDSTFADIAFTEDPNHGWLVGTKETIFETTDGGDTWEQKLIDLGEEKASFSAVSFSGNEGWITGKPSILLHTTDGGQTWARIPLSEKLPGAPYSIIALGPQTAEMITDLGAIYKTTNGGKNWKALVEGAVGVARTIQRSTDGRYVAVSARGNFYSTWAPGQTEWTPHNRNSSRRLQTMGYGKDGQLWLLARGGQLQFSTDPDAEEWSDVIAPQDKGSWGLLDLSFRTPEEVWVAGASGNLLMSQDGGQTWAKDTGVEDIPANLYRVVFLSPEKGFVLGQDGILLKYNPSTEVAMVP
On to B2, for which the binding result in assay [3] was “no binding”; in assay [4], “binds”; in assay [5] it was “no binding”.

B3: Vipp1 (protein, UniProt Q55707 1-267)
chain: MGLFDRLGRVVRANLNDLVSKAEDPEKVLEQAVIDMQEDLVQLRQAVARTIAEEKRTEQRLNQDTQEAKKWEDRAKLALTNGEENLAREALARKKSLTDTAAAYQTQLAQQRTMSENLRRNLAALEAKISEAKTKKNMLQARAKAAKANAELQQTLGGLGTSSATSAFERMENKVLDMEATSQAAGELAGFGIENQFAQLEASSGVEDELAALKASMAGGALPGTSAATPQLEAAPVDSSVPANNASQDDAVIDQELDDLRRRLNNL
For the molecule B3, the binding entry in assay [6] is listed as “binds”.

B4: Chaperone protein DnaK3 (protein, UniProt P73098 1-771)
chain: MGKVVGIDLGTTNSVVAVMEGGKPIVIANAEGMRTTPSVVGFNKEGELVVGQMGRRQAVLNPQNTFYGVKRFMGRRYTDLTPESKRVAYTIRRDDRDNIKVRCPRLKKDFAPEEISAMILRKLAEEASRYLGEKVTGAVITVPAYFNDSQRQATRDAGKIAGLEVLRIINEPTAASLAYGLDQGRIQKILVFDLGGGTFDVSVLEVGDGIFEVKATSGDTQLGGNDFDRRIVDWLAEKFLEAEKVDLRQDRQALQRLTEAAEKAKIELSGVGTTEINLPFITATEDGPKHLETQLSRSEFEDLCGDLVTRLQRPVKRVLKDAGLSPVQIDEVVLVGGGTRMPMVKGLVRSFIDREPNENVNPDEVVAIGAAIQAGILDGEVKDILLLDVTPLSFGLETIGGVMKKLLPRNTTIPVRKSDIFSTGENNQTVVEVHVLQGEREMASDNISLGRFKLSGIPPAPRGVPQVQVSFDIDANGILQVTARDKTTGREQSITVQGASILSEGEVNRMIQEAETFAAQDRERRERIEKRNSAKALTDQAQRRLKEVTLDFGSAFTVSYRRQVDALCSEILDSLEKDDERRLDRAQADLQDVLYELNREVRLQYDDKEEGFFEAIKKTFTGDFDDDDDYYNRRPAPRDDYRGGNDYGRYDDYNYNAPSRREAPMPRAGAGRGPSLSKDYRSTAYADWDQSRVTRQRPYQGESLGGTYDDRRSSPQDDYSRGDRQKDYDYRENAPSRSGRGGNGRYGERPAQPGRNAPLQNGWDDDDDDWF
On to B4, for which the values for the binding result in assay [3], in assay [4] and in assay [5] were “no binding”, “binds” and “no binding”, respectively.

The values above are taken from PMC4297356.
